Common to all, as to assay: Cytotoxicity test: cell count, cell proliferation
One test relates to HeLa/CD4 cell. It is filed as cell-based. Particulars: Homo sapiens, 48 h, 2 days culture, read-out: concentration to suppress cell proliferation by 50%.
Another test has as its system TE671/CD4 cell. It is filed as cell-based. Particulars: Homo sapiens, TE-671, 48 h, 2 days culture, read-out: concentration to suppress cell proliferation by 50%.
For another test, the system named is NP2/CD4/X4 cell. Particulars: Homo sapiens, 48 h, read-out: concentration to suppress cell proliferation by 50%.

Where only a bound is given, the exact number is not on record here.

`CC(C)=CCC/C(C)=C/CC/C(C)=C/C=C/C(C)=C/C(=O)O` [NIK-333]: the IC50 with HeLa/CD4 cell amounted to 7 µM; in the test on TE671/CD4 cell, 8 µM; with NP2/CD4/X4 cell it was 7 µM.

As for `CC1=C(/C=C/C(C)=C/C=C/C(C)=C/C(=O)Nc2ccc(O)cc2)C(C)(C)CCC1` [fenretinide, 4-Hydroxyphenylretinoid, reference compound], the values for the IC50 in the test on HeLa/CD4 cell, in the test on TE671/CD4 cell and with NP2/CD4/X4 cell were not below 2 µM, 2 µM and 0.7 µM, respectively.

For the origin of these results see patent US8415399B2, “Retrovirus-infection inhibitor” (Nagasaki University, priority 2006, dated 2013).
